In patent publication US20120208234A1 (KANEKA, published 2012):
Positions count from the first letter of the chain named. In names and notes the source's numbering stands.

B1: C-wild (other)
chain: GPLGSADNKFNKEQQNAFYEILHLPNLTEEQRNGFIQSLKDDPSVSKEILAEAKKLNDAQAPKC
notes: also called wild-type C domain of Protein A
B2: C-G29Y (designed binder)
chain: B1 chain with G34Y
B3: C-G29T (designed binder)
chain: B1 chain with G34T
B4: C-G29F (designed binder)
chain: B1 chain with G34F
B5: C-G29D (designed binder)
chain: B1 chain with G34D
B6: C-G29V (designed binder)
chain: B1 chain with G34V
B7: C-G29E (designed binder)
chain: B1 chain with G34E
B8: C-G29L (designed binder)
chain: B1 chain with G34L
B9: C-G29I (designed binder)
chain: B1 chain with G34I

What follows are binders tested against T1, human immunoglobulin G drug separated from human plasma (Gammagard, Baxter) (human) (assay: SPR, Biacore 3000; human IgG immobilized on CM5 chip, domain in flow; 25 C, pH 7.4; 1:1 fit).
T1 construct: also called human IgG

Binder | Ka [M⁻¹] | Kd [nM] | koff [s⁻¹] | kon [M⁻¹ s⁻¹]
B1 | 7e+07 | 14 | 0.0021 | 145000
B2 | 5e+07 | 20 | 0.0033 | 162000
B3 | 4.1e+07 | 24 | 0.003 | 122000
B4 | 4.9e+07 | 21 | 0.0028 | 134000
B5 | 3.2e+07 | 31 | 0.0031 | 100000
B6 | 3.3e+07 | 31 | 0.0036 | 119000
B7 | 3.8e+07 | 26 | 0.0033 | 127000
B8 | 3.5e+07 | 28 | 0.0037 | 131000
B9 | 3.5e+07 | 29 | 0.0033 | 115000
